The results in this text go back to a collection of fitness landscapes (doi:10.1016/j.celrep.2020.107928).

B1: Caulobacter ParB omega fusion; a variant is named by its letters at X, in order, B8GW30 (parent)
chain: MESVVVGEPGMSEGRRGLGRGLSALLGEVDAAPAQAPGEQLGGSREAPIEILQRNPDQPRRTFREEDLEDLSNSIREKGVLQPILVRPSPDTAGEYQIVAGERAWRAAQRAGLKTVPIMVRELDDLAVLEIGIIENVQRADLNVLEEALSYKVLMEKFERTQENIAQTIGKSXSHVANXMRLLXLPDEVQSYLVSGELTAXHARAIAAAADPVALAKQIIEGGLSVRETEALARKAPNLSAGKSKGGRPPRVKDTDTQALESDLSSVLGLDVSIDHRGSTGTLTITYATLEQLDDLCNRLTRGI

Over roughly 81,000 sequences, “one-hybrid fitness for binding NBS DNA” has its median near -0.1; the highest 2% begin near 0.36. Some of the results follow.

The variants in the test derive from B1. Nature of the test: one-hybrid fitness for binding NBS DNA (the Noc-binding site; scaled: cognate 1, non-cognate 0); higher = stronger binding. As to conditions: with NBS DNA site. In outline:
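Fitness here means the log change in variant-to-wild-type read ratio between plasmids sequenced before and after selection. That scale was set so cognate equals 1 and non-cognate equals 0. The selection was a bacterial one-hybrid screen of Caulobacter ParB libraries, four specificity codons randomised, in E. coli USO carrying a HIS3 reporter with the site 19 bp from the promoter, grown 48 hours at 37°C on M9-minus-histidine with 0.1 mM IPTG and 5 mM 3-AT.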
As for YRFR, the “one-hybrid fitness for binding NBS DNA” value is at most 0.2.

For VLKI, the “one-hybrid fitness for binding NBS DNA” value is at most 0.2. The value for AYCT was at most 0.2; that for PFDY was at most 0.2; that for CLNR was at most 0.2. The value for HTDG was at most 0.2; that for VWKY was at most 0.2; that for WHGC was at most 0.2. Regarding GPCG, the “one-hybrid fitness for binding NBS DNA” value is at most 0.2. The value for HVDG was at most 0.2.

Regarding AEGR, the “one-hybrid fitness for binding NBS DNA” value was at most 0.2.

For FTQG, the “one-hybrid fitness for binding NBS DNA” value was at most 0.2. With NLAV the figure was at most 0.2; with TAHM, at most 0.2. As to VAGD, the “one-hybrid fitness for binding NBS DNA” value is at most 0.2.

CAGC: the “one-hybrid fitness for binding NBS DNA” value was at most 0.2. With IRGH the figure was at most 0.2. The value for RDTR was at most 0.2; that for QTGC was 0.246.

Turning to NYSD, the “one-hybrid fitness for binding NBS DNA” value was at most 0.2. With WWER the figure was at most 0.2; with WTTL, at most 0.2. With SVCD the figure was at most 0.2; with PYES, at most 0.2; with NISS, at most 0.2. Turning to YRGT, the “one-hybrid fitness for binding NBS DNA” value is at most 0.2. The value for HATV was at most 0.2; that for TVAM was at most 0.2; that for IVAL was at most 0.2. The value for VHSL was at most 0.2; that for WANR was at most 0.2; that for QHPF was at most 0.2. The value for NRVE was at most 0.2. For the variant NLVV, the “one-hybrid fitness for binding NBS DNA” value is at most 0.2. The value for YWSM was at most 0.2; that for TELT was at most 0.2. The value for TIKV was at most 0.2. With HAQM the figure was at most 0.2. GMAG: the “one-hybrid fitness for binding NBS DNA” value was at most 0.2. With VWRS the figure was at most 0.2; with CQTY, at most 0.2. For RGDW, the “one-hybrid fitness for binding NBS DNA” value is at most 0.2. On to AWSV, for which the “one-hybrid fitness for binding NBS DNA” value is at most 0.2. With CPTS the figure was at most 0.2; with HHKA, at most 0.2; with KFTG, at most 0.2. The value for CFLR was at most 0.2. For QQDL, the “one-hybrid fitness for binding NBS DNA” value was at most 0.2. The value for QLQK was at most 0.2. The value for RIWT was 0.279; that for WVWG was at most 0.2. The value for NTKC was at most 0.2; that for PIGF was at most 0.2; that for TPNQ was at most 0.2. For the variant SDSM, the “one-hybrid fitness for binding NBS DNA” value was at most 0.2. With ATLW the figure was at most 0.2; with DPRM, at most 0.2; with QNYM, at most 0.2. For the variant QMLT, the “one-hybrid fitness for binding NBS DNA” value was 0.395. Consider PLLW, for which the “one-hybrid fitness for binding NBS DNA” value is at most 0.2. The value for QKVQ was 0.268; that for PVRI was at most 0.2; that for HMRG was at most 0.2. With NTSW the figure was at most 0.2; with SKLR, at most 0.2; with RLHQ, at most 0.2. The value for MQPF was at most 0.2; that for HKVT was at most 0.2; that for CCSG was at most 0.2. Turning to VWIT, the “one-hybrid fitness for binding NBS DNA” value was at most 0.2. The value for PQHC was at most 0.2; that for SKRI was at most 0.2; that for SEAE was at most 0.2. With NCTD, the “one-hybrid fitness for binding NBS DNA” value was at most 0.2. Consider CTSI, for which the “one-hybrid fitness for binding NBS DNA” value is at most 0.2. Regarding PVYE, the “one-hybrid fitness for binding NBS DNA” value is at most 0.2. With QSQV, the “one-hybrid fitness for binding NBS DNA” value is at most 0.2. With ADHY the figure was at most 0.2; with GSAT, at most 0.2.

Consider MWML, for which the “one-hybrid fitness for binding NBS DNA” value is at most 0.2. The value for HPSY was at most 0.2; that for HVCR was at most 0.2. As to QECG, the “one-hybrid fitness for binding NBS DNA” value is at most 0.2. With TAGG the figure was at most 0.2.
